Laboratory results as given in PubChem BioAssay AID887 (National Center for Advancing Translational Sciences (NCATS), 2007).
Screen size: about 74,000 compounds; about 1,100 (1.5%) were called active. Inconclusive results, whose numbers are uncertain, are shown with a selection of clear calls. The call rests on the fitted dose curve; in most records, active means well fitted inhibition curve with a large enough effect; inconclusive means small, poorly fitted or top-dose-only effect; inactive means no such curve, though single readings can be large or run the other way. No potency is given beside an inconclusive call; the fits are too rough.
Further: nearly all actives have a fitted effect of over 55% in size.
On the % scale 0 is the no-effect control and ±100 the full control effect; potency means the concentration at half of the fitted maximal effect; tags describe the fitted curve by direction and shape.

Each molecule was assayed against Polyunsaturated fatty acid lipoxygenase ALOX15 (Homo sapiens) (UniProt P16050) (assay: qHTS Assay for Inhibitors of 15-hLO (15-human lipoxygenase)). Conditions: purified 15hLO-1, xylenol orange hydroperoxide absorbance; activity change, negative = inhibition: at 57.1 µM (top of the series) unless noted.
Sequence of UniProt P16050 (P16050 whole entry, looked up): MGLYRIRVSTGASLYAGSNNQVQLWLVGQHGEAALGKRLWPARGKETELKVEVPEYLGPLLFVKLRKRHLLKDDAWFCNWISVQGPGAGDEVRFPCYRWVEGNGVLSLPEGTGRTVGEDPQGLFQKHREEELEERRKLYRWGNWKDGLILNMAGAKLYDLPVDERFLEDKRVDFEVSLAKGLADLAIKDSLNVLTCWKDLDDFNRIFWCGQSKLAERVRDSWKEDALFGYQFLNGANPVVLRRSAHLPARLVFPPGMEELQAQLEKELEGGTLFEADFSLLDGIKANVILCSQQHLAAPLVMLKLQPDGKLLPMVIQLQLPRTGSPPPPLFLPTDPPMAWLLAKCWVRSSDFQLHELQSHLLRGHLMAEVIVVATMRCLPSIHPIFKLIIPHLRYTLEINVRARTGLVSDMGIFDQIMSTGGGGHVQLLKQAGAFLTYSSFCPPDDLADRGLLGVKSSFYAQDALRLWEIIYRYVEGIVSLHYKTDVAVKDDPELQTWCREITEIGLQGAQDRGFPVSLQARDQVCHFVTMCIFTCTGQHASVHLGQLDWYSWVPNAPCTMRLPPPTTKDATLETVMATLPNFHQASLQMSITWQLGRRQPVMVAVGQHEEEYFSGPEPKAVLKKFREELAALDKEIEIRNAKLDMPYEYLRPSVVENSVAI
Summary of the method: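 Quantitative HTS in 25 mM Hepes pH 7.5 containing 0.01% Triton X-100: human 15hLO-1 at 40 nM, arachidonic acid at 50 uM, 6 min turnover. Product quantified via ferrous oxidation/xylenol orange, 573:405 nm absorbance ratio.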
With `CC(NCCC(c1ccccc1)c1ccccc1)c1ccccc1` (stereo not drawn) the Potency was inconclusive [inhibitor, single point].
`COc1ccc(CCNC(=O)c2ccc3nc(-c4ccco4)c(-c4ccco4)nc3c2)cc1OC` was tested, and the Potency was active: 7.94 µM.
For `c1cncc(-c2nn3c(Cn4cnc5ccccc54)nnc3s2)c1`, the Potency was active: 3.98 µM.
For `CCC(Sc1ccc2nnc(-c3ccc(F)cc3)n2n1)C(=O)O` (stereo not drawn), the Potency was inconclusive [inhibitor, single point].
With `CC1(C)CC(NC(=O)c2coc(=O)c(Br)c2)CC(C)(C)N1` the Potency was “inactive”.
With `CCN(CC)CCNC(=O)c1cc2c(-c3ccc(Cl)cc3)nn(C)c2s1` the Potency was inconclusive [inhibitor, partial curve].
For `O=C(CSc1n[nH]c(-c2ccccc2O)n1)N1CCCc2ccccc21`, the Potency was inconclusive [inhibitor, single point].
For `O=c1cnc2cnc(Oc3ccccc3)nc2n1C1CC1`, the Potency was “inactive”.
`COc1ccc(-c2nc(C#N)c(N3CCOCC3)o2)cc1OC` was tested, and the Potency was “inactive”.
For `CCOC(=O)CS(=O)(=O)c1nc(-c2ccc(F)cc2)cc(C(F)(F)F)n1`, the Potency was inconclusive [inhibitor, partial curve].
For `COc1ccc(Nc2ncc3c(n2)CC(c2ccc(OC)cc2)CC3=O)cc1` (stereo not drawn), the Potency was “inactive”.
With `Cc1[nH]nc2c1C1(CCN(C(=O)OCc3ccccc3)CC1)C(C#N)=C(N)O2` the Potency was inconclusive [inhibitor, single point].
In the case of `COc1ccc(CNc2nc(-c3ccc(N(C)C)cc3)nc3ccccc23)c(OC)c1`, the Potency is reported as active: 10 µM.
For `CC(O)COC(C)(C)C` (stereo not drawn), the Potency was “inactive”.
`COc1ccc(NC2CC(=O)N(c3ccccc3)C2=O)cc1` (stereo not drawn) was tested, and the Potency was “inactive”.
With `CCOC(=O)C1CCN(S(=O)(=O)c2cn(C)c(=O)n(C)c2=O)CC1` the Potency was inconclusive [inhibitor, partial curve].
In the case of `CCOC(=O)N1CCN(C(=O)COc2ccc(S(=O)(=O)NC(C)C)cc2)CC1`, the Potency is reported as “inactive”.
With `N/C(=N/O)c1nc(N2CCCC2)nc(N(c2ccccc2)c2ccccc2)n1` the Potency was inconclusive [inhibitor, partial curve].
`N#CCSc1nc2cc(C(=O)N3CCC(C(N)=O)CC3)ccc2c2nc3ccccc3n12` was tested, and the Potency was “inactive”.
For `CCCSC1=C(C#N)C(c2ccc(Cl)cc2Cl)CC(=O)N1` (stereo not drawn), the Potency was inconclusive [inhibitor, single point].
In the case of `COc1cc2c(cc1C(F)(F)F)N(C(=O)Nc1cc(F)cc(-c3cccnc3)c1)CC2`, the Potency is reported as inconclusive [inhibitor, single point].
For `CC(=O)[C@@]1(O)Cc2c(O)c3c(c(O)c2[C@H](O[C@H]2C[C@H](N)[C@H](O)[C@H](C)O2)C1)C(=O)c1ccccc1C3=O`, the Potency was inconclusive [inhibitor, single point].
In the case of `Oc1ccccc1-c1nc(N2CCN(Cc3ccccc3)CC2)c2ccccc2n1`, the Potency is reported as “inactive”.
`CS(=O)(=O)c1ccc2nc(NC(=O)C3COc4ccccc4O3)sc2c1` (stereo not drawn) was tested, and the Potency was inconclusive [inhibitor, partial curve, poor fit].
`Cn1c(N)c(S(=O)(=O)c2ccc(Br)cc2)c2nc3ccccc3nc21` was tested, and the Potency was inconclusive [inhibitor, partial curve].
`COc1ccc(N2CCN(C(=O)c3cn(C)c(=O)c4c3c3ccccc3n4C)CC2)cc1` was tested, and the Potency was inconclusive [inhibitor, partial curve].
With `COc1ccccc1N1CCN(c2nc(C)nc3c2oc2ccccc23)CC1` the Potency was “inactive”.
`CCC1=C/C(=C\c2ccc3c(c2)OCO3)C(=O)S1` was tested, and the Potency was active: 25.1 µM.
For `Cc1ccc(C2=CSC3=NCCN23)c(C)c1`, the Potency was inconclusive [inhibitor, partial curve].
In the case of `Cc1cc(C)nc(/N=c2/ssnc2Cl)c1`, the Potency is reported as inconclusive [inhibitor, partial curve].
`Nc1ccn([C@@H]2O[C@@H](CO)[C@@H](O)[C@H]2O)c(=O)n1` was tested, and the Potency was “inactive”.
With `COc1ccc2c(Cl)c(-c3nnc(SCC(N)=O)n3C)sc2c1` the Potency was inconclusive [inhibitor, single point].
`O=C(COn1nnc2ccccc21)NCC1CCCCC1` was tested, and the Potency was inconclusive [inhibitor, full curve, poor fit].
For `c1cc2c3c(cccc3c1)C(N1CCCCC1)=N2`, the Potency was inconclusive [inhibitor, single point].
`COc1ccc(C2C(C(=O)N3CC(C)CC(C)C3)c3ccccc3C(=O)N2C)cc1` (stereo not drawn) was tested, and the Potency was “inactive”.
`Cc1nc(Nc2ccccc2)[nH]c(=O)c1CCC(C)C` was tested, and the Potency was inconclusive [inhibitor, single point].
In the case of `O=C(O)c1cc(-c2ccc3cc4c(cc3c2)OCO4)nc2ccccc12`, the activity change, negative = inhibition is reported as inactive: -0.592% [at 11.4 µM].
For `CCCOC(=O)c1ccc(-c2c(C)noc2-c2ccc(OC)cc2O)o1`, the Potency was inconclusive [inhibitor, partial curve].
In the case of `CCC(C)(C)n1nnnc1CN(Cc1cc2cc(OC)c(OC)cc2[nH]c1=O)C1CCCC1`, the Potency is reported as inconclusive [inhibitor, partial curve].
With `O=C(COC(=O)c1cccc(S(=O)(=O)N2CCN(c3ccccc3)CC2)c1)NCc1ccco1` the Potency was active: 25.1 µM.
For `CC(C)(CS)C(=O)N1CCC[C@H]1C(=O)O`, the Potency was “inactive”.
With `CCCC(C(=O)NC1CCCC1)N(CCCN1CCOCC1)C(=O)c1snc(C(N)=O)c1N` (stereo not drawn) the Potency was “inactive”.
For `O=C(c1cccn2c(=O)c3cc(Cl)ccc3nc12)N1CCOCC1`, the Potency was “inactive”.
`O=C(O)c1c(Br)c(Br)c(Br)c(Br)c1C1c2ccc(O)cc2Oc2cc(O)ccc21` was tested, and the Potency was inconclusive [inhibitor, partial curve, poor fit].
With `Nc1nc(-c2ccco2)c(-c2ccco2)s1` the Potency was active: 20 µM.
In the case of `Cc1cccc(CNc2ccnc(-c3cccc(C#N)c3)n2)c1`, the Potency is reported as inconclusive [inhibitor, single point].
`CCOc1ccc(-c2cc(CCCC(=O)N3CCN(c4ccc(OC)cc4)CC3)no2)cc1` was tested, and the Potency was “inactive”.
`CC1CCN(Cc2c(C#N)c3ccccc3n2C)CC1` was tested, and the Potency was active: 25.1 µM.
